Kd and KDapparent data for six molecules are collected here from patent US20220106400A1 (Bristol-Myers Squibb, published 2022).

Experiment [1] addresses T1, hCD64 (human, UniProt P12314 16-288, limits assumed).
T1 construct: Purified FcgR protein generated in house; also called hFcgRI; FcgRI
Nature of the experiment: SPR (Biacore), FcgR analyte titration over protein A-captured dAb-Fc. On the procedure: (§1) A second SPR assay for testing the interaction between antibodies or dAb-Fc proteins with FcgR proteins is a protein A capture method. These experiments are also performed on either a Biacore™ T100 or Biacore™ T200 instrument (GE Healthcare) at 25° C. For these studies, protein A is immobilized on flow cells 1-4 of a CM5 sensor chip using standard ethyl (dimethylaminopropyl) carbodiimide (EDC)/N-hydroxysuccinimide (NHS) chemistry, with ethanolamine blocking, in a running buffer of 10 mM HEPES pH 7.4, 150 mM NaCl, 3 mM EDTA, 0.05% surfactant p20, to a density of ˜3000 RU.

Experiment [2] deals with T2, hCD32a-R131 (human, UniProt P12318 36-218).
T2 construct: Purified FcgR protein generated in house; described with a C-terminal 6x poly-histidine tag; also called FcgRIIa-R131
T2 sequence (looked up): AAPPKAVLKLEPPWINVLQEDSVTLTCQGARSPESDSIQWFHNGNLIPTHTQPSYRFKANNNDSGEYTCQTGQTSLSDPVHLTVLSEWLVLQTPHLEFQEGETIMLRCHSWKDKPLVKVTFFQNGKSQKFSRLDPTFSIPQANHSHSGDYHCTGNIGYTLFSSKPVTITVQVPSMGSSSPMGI
The experiment is described as above. On the procedure:
as §1

The target in experiment [3] is T3, hCD40-Fc (human, UniProt P25942 partial chain).
T3 construct: not shown: Fc part of hCD40-Fc, not described
Nature of the experiment: SPR, immobilized hCD40-Fc, dAb-Fc analyte (avidity).

hCD40-Fc, sequence (P25942 21-193): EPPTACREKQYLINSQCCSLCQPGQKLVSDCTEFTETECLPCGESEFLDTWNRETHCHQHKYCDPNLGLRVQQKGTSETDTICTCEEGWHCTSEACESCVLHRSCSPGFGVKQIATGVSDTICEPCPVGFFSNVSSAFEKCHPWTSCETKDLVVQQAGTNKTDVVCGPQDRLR
T1 sequence (P12314 16-288 limits assumed): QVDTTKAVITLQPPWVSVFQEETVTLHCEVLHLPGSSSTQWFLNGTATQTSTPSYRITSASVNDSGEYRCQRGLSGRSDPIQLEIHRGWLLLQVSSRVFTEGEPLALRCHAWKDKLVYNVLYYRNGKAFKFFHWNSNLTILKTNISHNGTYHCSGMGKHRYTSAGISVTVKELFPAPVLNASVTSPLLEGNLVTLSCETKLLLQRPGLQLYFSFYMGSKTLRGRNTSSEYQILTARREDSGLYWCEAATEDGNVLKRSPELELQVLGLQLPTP

B1: 3h56-269-IgG4.1 (Fc fusion)
chain: EVQLLESGGGLVQPGGSLRLSCAASGFTFRDYEMWWVRQAPGKGLERVSAINPQGTRTYYADSVKGRFTISRDNSKNTLYLQMNSLRAEDTAVYYCAKLPFRFSDRGQGTLVTVSSAST[human IgG4 Fc with S228P (EU numbers) skipped]
notes: also called BMS-986090
Turning to B1, the Kd worked out at 2.8 nM in experiment [1] and 2200 nM in experiment [2].

B2: 3h56-269-IgG1-D265A (Fc fusion)
chain: EVQLLESGGGLVQPGGSLRLSCAASGFTFRDYEMWWVRQAPGKGLERVSAINPQGTRTYYADSVKGRFTISRDNSKNTLYLQMNSLRAEDTAVYYCAKLPFRFSDRGQGTLVTVSSAST[human IgG1 Fc with D265A (EU numbers) skipped]
Regarding B2, binding in experiment [1] was characterised by a dissociation constant (Kd) of 62 nM.

B3: 3h56-269-IgG4.1 (Fc fusion)
chain: EVQLLESGGGLVQPGGSLRLSCAASGFTFRDYEMWWVRQAPGKGLERVSAINPQGTRTYYADSVKGRFTISRDNSKNTLYLQMNSLRAEDTAVYYCAKLPFRFSDRGQGTLVTVSSAST[human IgG4 Fc with S228P (EU numbers) skipped]
notes: dAb-Fc fusion protein; also called BMS-986090
On to B3, for which the KDapparent in experiment [3] was less than 1 nM.

B4: 3h56-269-CT (Fc fusion)
chain: EVQLLESGGGLVQPGGSLRLSCAASGFTFRDYEMWWVRQAPGKGLERVSAINPQGTRTYYADSVKGRFTISRDNSKNTLYLQMNSLRAEDTAVYYCAKLPFRFSDRGQGTLVTVSSAST[human IgG1 Fc with changes skipped]
notes: dAb-Fc fusion protein
As to B4, in experiment [3], the KDapparent is less than 1 nM.

B5: 3h56-269-CT (UCOE-CHO) (Fc fusion)
chain: EVQLLESGGGLVQPGGSLRLSCAASGFTFRDYEMWWVRQAPGKGLERVSAINPQGTRTYYADSVKGRFTISRDNSKNTLYLQMNSLRAEDTAVYYCAKLPFRFSDRGQGTLVTVSSAST[human IgG1 Fc with changes skipped]
Turning to B5, the KDapparent in experiment [3] is less than 1 nM.

B6: 3h56-269-IgG1-D265A (Fc fusion)
chain: EVQLLESGGGLVQPGGSLRLSCAASGFTFRDYEMWWVRQAPGKGLERVSAINPQGTRTYYADSVKGRFTISRDNSKNTLYLQMNSLRAEDTAVYYCAKLPFRFSDRGQGTLVTVSSAST[human IgG1 Fc with D265A (EU numbers) skipped]
notes: dAb-Fc fusion protein
On to B6, for which, in experiment [3], the KDapparent was less than 1 nM.
